Measured values from article PMC12820563, “FoxP3 forms a head-to-head dimer in vivo and stabilizes its multimerization on adjacent microsatellites”.
Some of the results follow.

Biological target: T1, MBP-FoxP1dN (Mus musculus, UniProt P58462 326-579)
T1 sequence: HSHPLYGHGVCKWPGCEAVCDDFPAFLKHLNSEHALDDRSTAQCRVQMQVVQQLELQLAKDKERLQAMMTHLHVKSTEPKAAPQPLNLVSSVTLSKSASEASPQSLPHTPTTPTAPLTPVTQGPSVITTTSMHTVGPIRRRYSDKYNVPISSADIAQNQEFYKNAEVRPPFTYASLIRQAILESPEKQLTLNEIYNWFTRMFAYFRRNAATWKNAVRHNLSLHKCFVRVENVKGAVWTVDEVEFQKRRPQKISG
Assay: PD-seq (MBP pull-down with sequencing); 20 mM Tris-HCl pH 7.5, 100 mM NaCl, 1.5 mM MgCl2, 0.4 uM protein, 0.1 uM dsDNA library, 30 min, room temperature, amylose pull-down; high values mean tight binding
Settings: protein: recombinant; tags: His6-MBP; chain copies: 2; dsDNA, one strand shown
Method in brief: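 A degenerate double-stranded DNA library, filled in with Klenow, was added at 0.1 µM to 0.4 µM His6-MBP-tagged mouse FoxP3 or FoxP1 fragment lacking the N-terminus, expressed in E. coli. Incubation lasted 30 min at room temperature in Tris pH 7.5 buffer with NaCl and MgCl2, after which complexes were collected on amylose resin, washed three times, digested with proteinase K to free the DNA, barcoded by PCR and sequenced by Illumina. Binding is the pooled-replicate reads-per-million enrichment of pull-down over input.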

Sequence | binding signal
GATGATTGTTCTCCCAGCTGATGAATTTACAATCTCGAGTAAACAAATTTTCCTAATCTTTCTGTTCAAGCGCCATCTAC | 1.3 RPM ratio (pull-down/input)
GATGATTGTTCTCCCAGCTGATGAATTACTCGCGTCGAGTAAACAAATTTTCCTAATCTTTCTGTTCAAGCGCCATCTAC | 1.08 RPM ratio (pull-down/input)
GATGATTGTTCTCCCAGCTGATGAATTACACAGGTCGAGTAAACAAATTTTCCTAATCTTTCTGTTCAAGCGCCATCTAC | 1.17 RPM ratio (pull-down/input)
GATGATTGTTCTCCCAGCTGATGAATTCTTTCTTTCGAGTAAACAAATTTTCCTAATCTTTCTGTTCAAGCGCCATCTAC | 0.899 RPM ratio (pull-down/input)
GATGATTGTTCTCCCAGCTGATGAATTCAGGGGGTCGAGTAAACAAATTTTCCTAATCTTTCTGTTCAAGCGCCATCTAC | 0.723 RPM ratio (pull-down/input)
GATGATTGTTCTCCCAGCTGATGAATTCTATACTTCGAGTAAACAAATTTTCCTAATCTTTCTGTTCAAGCGCCATCTAC | 1.05 RPM ratio (pull-down/input)
GATGATTGTTCTCCCAGCTGATGAATTGAGTAAATCGAGTAAACAAATTTTCCTAATCTTTCTGTTCAAGCGCCATCTAC | 1.23 RPM ratio (pull-down/input)
GATGATTGTTCTCCCAGCTGATGAATTCCGCCTTTCGAGTAAACAAATTTTCCTAATCTTTCTGTTCAAGCGCCATCTAC | 0.858 RPM ratio (pull-down/input)
GATGATTGTTCTCCCAGCTGATGAATTGCTTGCATCGAGTAAACAAATTTTCCTAATCTTTCTGTTCAAGCGCCATCTAC | 1.34 RPM ratio (pull-down/input)
GATGATTGTTCTCCCAGCTGATGAATTTCCTAGGTCGAGTAAACAAATTTTCCTAATCTTTCTGTTCAAGCGCCATCTAC | 0.797 RPM ratio (pull-down/input)
GATGATTGTTCTCCCAGCTGATGAATTCGGATATTCGAGTAAACAAATTTTCCTAATCTTTCTGTTCAAGCGCCATCTAC | 0.904 RPM ratio (pull-down/input)
GATGATTGTTCTCCCAGCTGATGAATTCGTTACATCGAGTAAACAAATTTTCCTAATCTTTCTGTTCAAGCGCCATCTAC | 1.01 RPM ratio (pull-down/input)
GATGATTGTTCTCCCAGCTGATGAATTGGCTGGGTCGAGTAAACAAATTTTCCTAATCTTTCTGTTCAAGCGCCATCTAC | 0.772 RPM ratio (pull-down/input)
GATGATTGTTCTCCCAGCTGATGAATTTACGCATTCGAGTAAACAAATTTTCCTAATCTTTCTGTTCAAGCGCCATCTAC | 1.51 RPM ratio (pull-down/input)
GATGATTGTTCTCCCAGCTGATGAATTTATAAACTCGAGTAAACAAATTTTCCTAATCTTTCTGTTCAAGCGCCATCTAC | 1.24 RPM ratio (pull-down/input)
GATGATTGTTCTCCCAGCTGATGAATTGGTGACTTCGAGTAAACAAATTTTCCTAATCTTTCTGTTCAAGCGCCATCTAC | 0.977 RPM ratio (pull-down/input)

Sequence | binding signal
GATGATTGTTCTCCCAGCTGATGAATTAATAGATTCGAGTAAACAAATTTTCCTAATCTTTCTGTTCAAGCGCCATCTAC | 0.967 RPM ratio (pull-down/input)
GATGATTGTTCTCCCAGCTGATGAATTACAACCATCGAGTAAACAAATTTTCCTAATCTTTCTGTTCAAGCGCCATCTAC | 1.26 RPM ratio (pull-down/input)
GATGATTGTTCTCCCAGCTGATGAATTCAGCCTGTCGAGTAAACAAATTTTCCTAATCTTTCTGTTCAAGCGCCATCTAC | 0.745 RPM ratio (pull-down/input)
GATGATTGTTCTCCCAGCTGATGAATTAGTGACCTCGAGTAAACAAATTTTCCTAATCTTTCTGTTCAAGCGCCATCTAC | 0.866 RPM ratio (pull-down/input)
GATGATTGTTCTCCCAGCTGATGAATTCGTCCCCTCGAGTAAACAAATTTTCCTAATCTTTCTGTTCAAGCGCCATCTAC | 0.772 RPM ratio (pull-down/input)
GATGATTGTTCTCCCAGCTGATGAATTGTACGCCTCGAGTAAACAAATTTTCCTAATCTTTCTGTTCAAGCGCCATCTAC | 0.951 RPM ratio (pull-down/input)
GATGATTGTTCTCCCAGCTGATGAATTCTGCGTCTCGAGTAAACAAATTTTCCTAATCTTTCTGTTCAAGCGCCATCTAC | 0.839 RPM ratio (pull-down/input)
GATGATTGTTCTCCCAGCTGATGAATTAGGACTATCGAGTAAACAAATTTTCCTAATCTTTCTGTTCAAGCGCCATCTAC | 0.886 RPM ratio (pull-down/input)
GATGATTGTTCTCCCAGCTGATGAATTGCCGCTTTCGAGTAAACAAATTTTCCTAATCTTTCTGTTCAAGCGCCATCTAC | 1.06 RPM ratio (pull-down/input)
GATGATTGTTCTCCCAGCTGATGAATTTTGTGATTCGAGTAAACAAATTTTCCTAATCTTTCTGTTCAAGCGCCATCTAC | 1.27 RPM ratio (pull-down/input)
GATGATTGTTCTCCCAGCTGATGAATTGCATTTTTCGAGTAAACAAATTTTCCTAATCTTTCTGTTCAAGCGCCATCTAC | 1.69 RPM ratio (pull-down/input)
GATGATTGTTCTCCCAGCTGATGAATTTAGGAGATCGAGTAAACAAATTTTCCTAATCTTTCTGTTCAAGCGCCATCTAC | 0.968 RPM ratio (pull-down/input)
GATGATTGTTCTCCCAGCTGATGAATTGGAAGCGTCGAGTAAACAAATTTTCCTAATCTTTCTGTTCAAGCGCCATCTAC | 0.893 RPM ratio (pull-down/input)
GATGATTGTTCTCCCAGCTGATGAATTGGTAGTGTCGAGTAAACAAATTTTCCTAATCTTTCTGTTCAAGCGCCATCTAC | 0.916 RPM ratio (pull-down/input)
GATGATTGTTCTCCCAGCTGATGAATTCTTCACTTCGAGTAAACAAATTTTCCTAATCTTTCTGTTCAAGCGCCATCTAC | 0.92 RPM ratio (pull-down/input)
